# Experimental data taken from the supplement of paper PMC3334620.
# In all, about 33,000 sequences were measured (“E-score (-0.5 to 0.5)”: median about -0.035, highest 2% from about 0.34 on). This is one part of the list.
# Biological target: T1, Mot3 (UniProt P54785)
# T1 sequence: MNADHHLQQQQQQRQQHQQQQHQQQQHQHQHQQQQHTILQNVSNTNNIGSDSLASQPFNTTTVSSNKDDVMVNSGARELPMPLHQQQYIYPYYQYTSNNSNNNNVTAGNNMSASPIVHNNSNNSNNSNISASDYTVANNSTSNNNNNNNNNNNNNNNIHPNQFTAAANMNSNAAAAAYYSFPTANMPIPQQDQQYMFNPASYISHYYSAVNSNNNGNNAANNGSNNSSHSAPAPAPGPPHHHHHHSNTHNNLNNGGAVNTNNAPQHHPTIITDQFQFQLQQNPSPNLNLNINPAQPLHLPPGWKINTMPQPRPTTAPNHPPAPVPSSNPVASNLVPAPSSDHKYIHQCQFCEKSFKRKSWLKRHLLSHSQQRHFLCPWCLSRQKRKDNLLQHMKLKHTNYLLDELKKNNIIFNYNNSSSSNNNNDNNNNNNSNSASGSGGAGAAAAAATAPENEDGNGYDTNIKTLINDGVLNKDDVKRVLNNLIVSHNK
# Test: PBM E-score (8-mer binding enrichment) (E-score (-0.5 to 0.5)); higher = stronger / more preferred TF binding; most listed sequences are background and not binding sites
# Details: protein concentration: 200 nM; construct: GST-full length
# Protocol: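 Universal 'all 10-mer' protein binding microarrays (Agilent AMADID 015681) probed with GST-tagged S. cerevisiae TFs (full-length or DBD) made by in vitro transcription/translation (PURExpress), about 100-200 nM. Bound TF was detected with fluorescent anti-GST. Each ungapped 8-mer (which stands for itself and its reverse complement) is scored by the PBM enrichment score (E-score), a modified Wilcoxon-Mann-Whitney statistic from -0.5 to +0.5, computed with the Universal PBM Analysis Suite. Scale: above 0.35 generally sequence-specific binding.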
row,Sequence,PBM E-score
1,TAAGGGTA,-0.132
2,TCTCCCCA,-0.121
3,CATACCTA,-0.014
4,ACGTGCCG,0.144
5,CAATAGAG,-0.157
6,AGCACGGG,-0.166
7,ACCGAAGG,-0.147
8,CGCGTAGA,0.316
9,AGAAGTAT,0.102
10,GAGGTGGA,-0.182
11,GCCGAGGA,-0.00379
12,AGAAGGTC,-0.0584
13,GGAGCAGA,-0.313
14,CCCCCGGG,-0.199
15,TCGTGACA,-0.0171
16,ACCACAGC,-0.197
17,AACTCGGC,-0.0608
18,GGGTCCAC,-0.372
19,ACTGCAGA,-0.0584
20,CTGCGGAC,-0.128
21,CTAGTTAA,0.225
22,CTGGAAAA,-0.038
23,CGACAGAG,-0.205
24,AAGACTGG,-0.0478
25,CGAGTCCG,-0.196

row,Sequence,PBM E-score
1,TACTAAGA,-0.0572
2,AGATAGGC,0.235
3,TGGAGCCA,-0.163
4,CCTCGTCG,-0.0873
5,CAGGGGTC,-0.118
6,TCCTAGGA,0.0441
7,TGGGATAA,-0.0725
8,ACTTTACC,0.0687
9,TATGCACA,0.0239
10,GATATTCC,-0.156
11,GGCGCGTA,0.202
12,CCCCCCTA,-0.277
13,CGCATATA,-0.00057
14,ATGATTCC,-0.0953
15,GAGTCGAA,-0.0456
16,CCAGCATA,-0.186
17,ACACTTCA,0.0662
18,AGTCAAAA,0.0274
19,CTTCAGGA,-0.0384
20,AGAGCTCG,-0.0842
21,AGGCTTGC,0.17
22,GTCTCGGA,-0.131
23,CCTGATAG,-0.027
24,ATCGGTCC,-0.281
25,CGCTAAAA,0.103

row,Sequence,PBM E-score
1,GTGCGCAC,-0.0815
2,CCCATAGA,-0.197
3,AAGAGCAA,-0.223
4,ACATCGGT,-0.00649
5,AAGTGACG,0.0422
6,GAAAGTAA,0.133
7,ACCGCCAG,-0.0496
8,CTTCATGC,-0.135
9,AGCGTCAC,-0.224
10,AGATCAGG,-0.0288
11,GTTCTATA,0.0934
12,CTTGACCC,-0.0185
13,ACCTCAAG,-0.0329
14,CATTGAAC,0.124
15,TAAAGTAA,0.185
16,AATGACAT,0.158
17,CCATTTTC,-0.0477
18,AGTTATGC,-0.00809
19,ACAGCACC,-0.294
20,ACCGCCTA,-0.176
21,ACCAAGCA,-0.0877
22,ACAGCCGG,-0.0721
23,CATATTAA,0.151
24,GGTTTGGA,0.00084
25,CGCATGTA,0.356

row,Sequence,PBM E-score
1,CGTACAAG,0.183
2,CTAATTCA,0.0729
3,AGTTATAA,0.163
4,ATGTCGTG,0.226
5,CAGTGAAA,-0.0605
6,ATGTCTGA,-0.0191
7,ACTGTTAC,-0.0175
8,AAGCTCGA,-0.0643
9,GGTCAGCA,-0.0605
10,GCGTATAC,0.234
11,CCGCATAC,-0.159
12,ATCCAGCA,-0.0996
13,CGTTGTAC,0.167
14,AGGAGAAC,-0.0599
15,ATGGAGTA,-0.039
16,CGGGTCCC,-0.226
17,AATTCTGA,-0.0534
18,GTCCTCAA,0.00814
19,TAAGCACA,0.113
20,GTGAGGGA,-0.264
21,ATACACTC,0.0887
22,CTCAAGGC,0.23
23,CAACGTCG,0.0622
24,GACGCGGA,0.0003
25,ATGTGCTC,-0.0127

row,Sequence,PBM E-score
1,ATCCCATG,0.0443
2,AGTTGGGG,-0.163
3,CGCACATA,-0.146
4,CCAGGCCG,-0.168
5,AGAGAGCT,-0.194
6,CAAAAGGA,0.238
7,GACGAACA,0.00985
8,ATTCAAGA,-0.0536
9,CGCTAGTC,-0.413
10,GGCAGAAA,0.142
11,CTCGTCTA,-0.168
12,AAGTACAC,0.24
13,AAGCAATA,0.0951
14,ATAGGCCC,-0.0679
15,AACGGCTA,-0.0369
16,GTCCTCAC,-0.278
17,ACATTAAC,0.253
18,GTTTTTCA,0.144
19,CTCCTTAC,0.076
20,AGCGTCCT,-0.00078
21,AGTTCCGC,-0.12
22,ACGAGGAT,0.0893
23,ATCCAAAT,0.0987
24,TGACTCAA,0.0651
25,GAAAACCA,-0.00696

row,Sequence,PBM E-score
1,ATCGCATA,0.00354
2,ATGGGATA,-0.0934
3,GGTCCTTA,-0.152
4,AGATTCCG,-0.193
5,ACTGCTCA,-0.127
6,CCCTCTTC,-0.183
7,ATTCCCAA,-0.102
8,GCGGGCCC,-0.288
9,CAAAGGCC,-0.151
10,ACGGGCCA,-0.261
11,CGCCGGCA,-0.294
12,CCGACCCA,-0.264
13,GACTGTGC,-0.0543
14,CCCCTGCG,-0.0706
15,ACGCTGGC,-0.185
16,TTATGCAA,0.12
17,ATTGTACA,0.269
18,AAGTACGC,0.154
19,CTTGAGGC,0.0947
20,AACAGTAC,0.143
21,GTGACAGA,0.0206
22,ACTGAACG,-0.128
23,ATGTCTGG,-0.0238
24,AGAATTCT,-0.0542
25,CCTGTCGC,-0.046

row,Sequence,PBM E-score
1,AGGGAATG,-0.0864
2,AGACTTTA,0.0248
3,AGCACAGA,0.208
4,GAAATCTA,0.0868
5,AGACAGTG,-0.00533
6,GAATAGCA,-0.0702
7,CCTTTTTC,0.203
8,GTAGTTTA,0.213
9,GAAACGAC,-0.00969
10,AAAAAAAC,0.0698
11,ACCCCGTA,-0.162
12,ACTTGAGG,-0.253
13,GCTGCACA,-0.00094
14,ACCTAACA,0.158
15,CAAGGACG,-0.16
16,CCGACTGA,-0.257
17,CCGACGCC,0.00363
18,AATAGGGT,0.0289
19,CACACTCA,-0.0253
20,CCCGGGCC,-0.252
21,ATGTGGCG,-0.117
22,GCCCTCGC,-0.261
23,GTGTATAA,0.343
24,AGCCTCCC,-0.279
25,ATACACTA,0.124

row,Sequence,PBM E-score
1,CAAATCAA,0.322
2,CCGCACAC,-0.282
3,CAAGTATG,-0.0772
4,TCGAGCGA,-0.0423
5,ACACAAAG,0.224
6,ACAGTACA,0.155
7,AATTGTCC,0.00548
8,AGATCGGA,-0.029
9,CCTGATTA,0.247
10,CACGCTCC,0.074
11,CAGATATA,0.0491
12,CGAATCCG,0.14
13,AATCCTTA,0.194
14,CCTTTAAC,0.288
15,GAAGTCAA,-0.0355
16,AGCCTTTC,0.00311
17,ATTCAACA,0.204
18,ATAGTCAT,-0.122
19,AAAAGCCT,0.126
20,CCCCCCCG,-0.409
21,ATTCGCGA,0.0789
22,CTGAATGA,0.00529
23,AAAGCCGT,0.0462
24,GCACGGGC,-0.113
25,ATCTTTTA,0.0822

row,Sequence,PBM E-score
1,ACAGGGCC,-0.132
2,ACGGTCGA,-0.224
3,CGCATGCG,-0.0251
4,AACCGTTG,-0.0773
5,CGTGGACA,0.0107
6,AAAACTGC,-0.0209
7,CTAGGAAC,0.372
8,CTACAGCC,0.0807
9,ATGATGTG,0.048
10,ATAGGTCC,-0.0381
11,AACGTAAA,0.236
12,CGTCCGAA,-0.104
13,GTCTTTTA,0.048
14,AACGGCGC,-0.145
15,CACGGCAG,0.143
16,AGATTTTC,0.00802
17,CGTCAGAC,-0.218
18,GACGTCAA,0.0781
19,ACGCGTCT,0.112
